Cell viability data for 38 compounds are collected here from the supplement of paper PMC9588766.

Counter-ions that a name gives are not always drawn. The full ranking holds about 1,900 compounds; the median of “cell viability of compound + 1 nM pemigatinib relative to pemigatinib-only (DMSO) wells” is about 0.95, and the lowest 2% start at about 0.22. Some of the results follow.

In the assay the test system is PDC-DUC18828. Nature of the assay: cell viability of compound + 1 nM pemigatinib relative to pemigatinib-only (DMSO) wells (fraction); PDC-DUC18828 is a patient-derived cholangiocarcinoma cell line; higher = less growth inhibition. As to conditions: first compound 1 µM; pemigatinib concentration 1 nM; 72 h. The protocol: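 Selleck Bioactive library screen in the patient-derived FGFR2 fusion-positive ICC cell line PDC-DUC18828 (500 cells/well). Each compound was tested at 1 uM with 1 nM pemigatinib, in triplicate, for 72 h. Viability was read by CellTiter-Glo and normalised to plate DMSO controls. Value is the paper's averaged normalised viability.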
With `c1cncc(CN2CCC(n3ncc4c(N5CCOCC5)nc(-c5ccc6[nH]ccc6c5)nc43)CC2)c1` + CCN1C(=O)N(c2c(F)c(OC)cc(OC)c2F)Cc2cnc3[nH]c(CN4CCOCC4)cc3c21 [pemigatinib], the cell viability stood at 0.592.
Then `COC1CCN(C(=O)c2cc(Cc3n[nH]c(=O)c4ccccc34)ccc2F)CC1` + CCN1C(=O)N(c2c(F)c(OC)cc(OC)c2F)Cc2cnc3[nH]c(CN4CCOCC4)cc3c21 [pemigatinib], with 0.884.
Then `Cc1cc(C)c(S(=O)(=O)n2cc(C)cc2C)c(C)c1` + CCN1C(=O)N(c2c(F)c(OC)cc(OC)c2F)Cc2cnc3[nH]c(CN4CCOCC4)cc3c21 [pemigatinib], with 0.957; and `Cc1[nH]c2ccccc2c1CCNCc1ccc(/C=C/C(=O)NO)cc1` [Panobinostat (LBH589)] + CCN1C(=O)N(c2c(F)c(OC)cc(OC)c2F)Cc2cnc3[nH]c(CN4CCOCC4)cc3c21 [pemigatinib], with 0.0639.
To `O=C(O)[C@H]1O[C@@H](Oc2cc3oc(-c4ccccc4)cc(=O)c3c(O)c2O)[C@H](O)[C@@H](O)[C@@H]1O` [Baicalin] + CCN1C(=O)N(c2c(F)c(OC)cc(OC)c2F)Cc2cnc3[nH]c(CN4CCOCC4)cc3c21 [pemigatinib] belongs 1.01; to `Cn1cc(-c2ccncc2)c(-c2ccc(OCc3ccc4ccccc4n3)cc2)n1` + CCN1C(=O)N(c2c(F)c(OC)cc(OC)c2F)Cc2cnc3[nH]c(CN4CCOCC4)cc3c21 [pemigatinib], 0.99; to `C=CC(=O)Nc1ccc(CN2C(=O)N(c3cc(OC)cc(OC)c3)Cc3cnc(Nc4ccc(N5CCN(C)CC5)cc4)nc32)cc1` + CCN1C(=O)N(c2c(F)c(OC)cc(OC)c2F)Cc2cnc3[nH]c(CN4CCOCC4)cc3c21 [pemigatinib], 0.871.
Take `Cc1ncc(Cl)cc1NCc1ccc(C(=O)N[C@@H](CC2CCCC2)C(=O)NC2CC2)s1` + CCN1C(=O)N(c2c(F)c(OC)cc(OC)c2F)Cc2cnc3[nH]c(CN4CCOCC4)cc3c21 [pemigatinib]: the cell viability was 0.957.
Then `C=CC(C)(C)c1cc(/C=C/C(=O)c2ccc(O)cc2)c(OC)cc1O` [Licochalcone A] + CCN1C(=O)N(c2c(F)c(OC)cc(OC)c2F)Cc2cnc3[nH]c(CN4CCOCC4)cc3c21 [pemigatinib], with 0.924; and `CCCCCCCCCCCCc1ccc(S(=O)(=O)Nc2nncs2)cc1` + CCN1C(=O)N(c2c(F)c(OC)cc(OC)c2F)Cc2cnc3[nH]c(CN4CCOCC4)cc3c21 [pemigatinib], with 1.
Then `OC(CCCN1CCCCC1)(c1ccccc1)c1ccccc1` [Diphenidol HCl] + CCN1C(=O)N(c2c(F)c(OC)cc(OC)c2F)Cc2cnc3[nH]c(CN4CCOCC4)cc3c21 [pemigatinib], with 0.927; and `CCN(CC)CCOC(=O)C(c1ccccc1)c1ccccc1` [Adiphenine HCl] + CCN1C(=O)N(c2c(F)c(OC)cc(OC)c2F)Cc2cnc3[nH]c(CN4CCOCC4)cc3c21 [pemigatinib], with 1.01.
To `C[C@H]1[C@H](C)CC[C@]2(C(=O)O)CC[C@]3(C)C(=CC[C@@H]4[C@@]5(C)C[C@@H](O)[C@H](O)[C@@](C)(CO)[C@@H]5CC[C@]43C)[C@H]12` [Asiatic Acid] + CCN1C(=O)N(c2c(F)c(OC)cc(OC)c2F)Cc2cnc3[nH]c(CN4CCOCC4)cc3c21 [pemigatinib] belongs 0.979; to `CCOC(=O)c1ccc(N)cc1` [Benzocaine] + CCN1C(=O)N(c2c(F)c(OC)cc(OC)c2F)Cc2cnc3[nH]c(CN4CCOCC4)cc3c21 [pemigatinib], 1.02.
With `CN1CCN(c2c(F)cc3c(=O)c(C(=O)O)cn4c3c2OCN4C)CC1` [Marbofloxacin] + CCN1C(=O)N(c2c(F)c(OC)cc(OC)c2F)Cc2cnc3[nH]c(CN4CCOCC4)cc3c21 [pemigatinib], the cell viability is 1.06.
To `CN(Cc1cnc2nc(N)nc(N)c2n1)c1ccc(C(=O)N[C@@H](CCC(=O)O)C(=O)O)cc1` [Methotrexate] + CCN1C(=O)N(c2c(F)c(OC)cc(OC)c2F)Cc2cnc3[nH]c(CN4CCOCC4)cc3c21 [pemigatinib] belongs 0.901; to `CCOc1ccc2nc3cc(N)ccc3c(N)c2c1` [Ethacridine lactate monohydrate] + CCN1C(=O)N(c2c(F)c(OC)cc(OC)c2F)Cc2cnc3[nH]c(CN4CCOCC4)cc3c21 [pemigatinib], 0.889.
Then `Nc1cc(F)ccc1NC(=O)/C=C/c1cnn(C/C=C/c2ccccc2)c1` + CCN1C(=O)N(c2c(F)c(OC)cc(OC)c2F)Cc2cnc3[nH]c(CN4CCOCC4)cc3c21 [pemigatinib], with 0.976.
Then `O=C(CCCCCCC(=O)Nc1ccc([C@H]2O[C@@H](CSc3nc(-c4ccccc4)c(-c4ccccc4)o3)C[C@@H](c3ccc(CO)cc3)O2)cc1)NO` [Tubacin] + CCN1C(=O)N(c2c(F)c(OC)cc(OC)c2F)Cc2cnc3[nH]c(CN4CCOCC4)cc3c21 [pemigatinib], with 0.983; and `COc1cc(C(C)=O)ccc1O` [Apocynin] + CCN1C(=O)N(c2c(F)c(OC)cc(OC)c2F)Cc2cnc3[nH]c(CN4CCOCC4)cc3c21 [pemigatinib], with 0.968.
For `OC(CN1CCN(c2cccc(Cl)c2)CC1)C(c1ccccc1)c1ccccc1` (stereo not drawn) + CCN1C(=O)N(c2c(F)c(OC)cc(OC)c2F)Cc2cnc3[nH]c(CN4CCOCC4)cc3c21 [pemigatinib], the cell viability came to 0.997.
Regarding `COc1cc(OC)c(/C=C/S(=O)(=O)Cc2ccc(OC)c(NCC(=O)O)c2)c(OC)c1` + CCN1C(=O)N(c2c(F)c(OC)cc(OC)c2F)Cc2cnc3[nH]c(CN4CCOCC4)cc3c21 [pemigatinib], the cell viability is 0.214.
Then `CN(C)[C@@H]1C(O)=C(C(N)=O)C(=O)[C@@]2(O)C(O)=C3C(=O)c4c(O)cccc4[C@@](C)(O)[C@H]3[C@H](O)[C@@H]12` [Oxytetracycline Dihydrate] + CCN1C(=O)N(c2c(F)c(OC)cc(OC)c2F)Cc2cnc3[nH]c(CN4CCOCC4)cc3c21 [pemigatinib], with 1.02; and `CN(C)[C@@H]1C(O)=C(C(N)=O)C(=O)[C@@]2(O)C(O)=C3C(=O)c4c(O)cccc4[C@@](C)(O)[C@H]3[C@H](O)[C@@H]12` [Oxytetracycline (Terramycin)] + CCN1C(=O)N(c2c(F)c(OC)cc(OC)c2F)Cc2cnc3[nH]c(CN4CCOCC4)cc3c21 [pemigatinib], with 0.977.
Regarding `C/C(=C\c1ccc(C(=O)O)cc1)c1ccc2c(c1)C(C)(C)CCC2(C)C` [TTNPB (Arotinoid Acid)] + CCN1C(=O)N(c2c(F)c(OC)cc(OC)c2F)Cc2cnc3[nH]c(CN4CCOCC4)cc3c21 [pemigatinib], the cell viability is 0.908.
To `COc1ccc(-c2ccc3c(N4CCOCC4)nc(N4C[C@@H](C)O[C@@H](C)C4)nc3n2)cc1CO` + CCN1C(=O)N(c2c(F)c(OC)cc(OC)c2F)Cc2cnc3[nH]c(CN4CCOCC4)cc3c21 [pemigatinib] belongs 0.933; to `NC(N)=Nc1nc(CSCC/C(N)=N/S(N)(=O)=O)cs1` [Famotidine] + CCN1C(=O)N(c2c(F)c(OC)cc(OC)c2F)Cc2cnc3[nH]c(CN4CCOCC4)cc3c21 [pemigatinib], 1.05; to `CC1=C(/C=C/C(C)=C/C=C/C(C)=C\C(=O)O)C(C)(C)CCC1` [Isotretinoin] + CCN1C(=O)N(c2c(F)c(OC)cc(OC)c2F)Cc2cnc3[nH]c(CN4CCOCC4)cc3c21 [pemigatinib], 0.937.
To `CC/C(=C(/CC)c1ccc(O)cc1)c1ccc(O)cc1` [Diethylstilbestrol] + CCN1C(=O)N(c2c(F)c(OC)cc(OC)c2F)Cc2cnc3[nH]c(CN4CCOCC4)cc3c21 [pemigatinib] belongs 0.928.
For `Cc1ccc([N+](=O)[O-])cc1S(=O)(=O)N(C)/N=C/c1cnc2ccc(Br)cn12` + CCN1C(=O)N(c2c(F)c(OC)cc(OC)c2F)Cc2cnc3[nH]c(CN4CCOCC4)cc3c21 [pemigatinib], the cell viability was found to be 0.902.
To `Cc1noc(C)c1-c1ccc(-c2cc(C(N)=O)c(NC(N)=O)s2)c(O[C@H]2CCNC2)c1` + CCN1C(=O)N(c2c(F)c(OC)cc(OC)c2F)Cc2cnc3[nH]c(CN4CCOCC4)cc3c21 [pemigatinib] belongs 0.963.
As to `CCCCCCCc1ccc(CCc2cccc(O)c2C(=O)O)cc1` + CCN1C(=O)N(c2c(F)c(OC)cc(OC)c2F)Cc2cnc3[nH]c(CN4CCOCC4)cc3c21 [pemigatinib], the cell viability was 1.
To `Cc1ccccc1C(OCCN(C)C)c1ccccc1` (stereo not drawn) [Orphenadrine Citrate] + CCN1C(=O)N(c2c(F)c(OC)cc(OC)c2F)Cc2cnc3[nH]c(CN4CCOCC4)cc3c21 [pemigatinib] belongs 1.02.
To `O=C1C(O)=C([C@H]2CC[C@H](c3ccc(Cl)cc3)CC2)C(=O)c2ccccc21` [Atovaquone] + CCN1C(=O)N(c2c(F)c(OC)cc(OC)c2F)Cc2cnc3[nH]c(CN4CCOCC4)cc3c21 [pemigatinib] belongs 0.871.
Then `Cc1nn(C)c2c1C(c1ccc(C(F)(F)F)cc1)C(C#N)=C(N)O2` (stereo not drawn) + CCN1C(=O)N(c2c(F)c(OC)cc(OC)c2F)Cc2cnc3[nH]c(CN4CCOCC4)cc3c21 [pemigatinib], with 0.921; and `CNCc1cc(-c2ccccc2F)n(S(=O)(=O)c2cccnc2)c1` + CCN1C(=O)N(c2c(F)c(OC)cc(OC)c2F)Cc2cnc3[nH]c(CN4CCOCC4)cc3c21 [pemigatinib], with 1.03; and `COc1c2ccoc2cc2oc(=O)ccc12` [Bergapten] + CCN1C(=O)N(c2c(F)c(OC)cc(OC)c2F)Cc2cnc3[nH]c(CN4CCOCC4)cc3c21 [pemigatinib], with 0.948.
On to `CCCCCCCCCCCC1=C(O)C(=O)C=C(O)C1=O` [Embelin] + CCN1C(=O)N(c2c(F)c(OC)cc(OC)c2F)Cc2cnc3[nH]c(CN4CCOCC4)cc3c21 [pemigatinib], for which the cell viability came out at 0.936.
